Test results reported in article PMC4336329 (PLoS ONE, 2015).
The campaign covered roughly 310,000 compounds. About 2,200 (0.71%) showed an effect of 50% or more. Effects have a minus sign here. The list shows a part of the results.

biological target: human ether-à-go-go-related gene (hERG) potassium channel (human, UniProt Q12809); test: primary screen, population patch clamp on CHO cells stably expressing hERG
Sequence (Q12809 whole entry, looked up): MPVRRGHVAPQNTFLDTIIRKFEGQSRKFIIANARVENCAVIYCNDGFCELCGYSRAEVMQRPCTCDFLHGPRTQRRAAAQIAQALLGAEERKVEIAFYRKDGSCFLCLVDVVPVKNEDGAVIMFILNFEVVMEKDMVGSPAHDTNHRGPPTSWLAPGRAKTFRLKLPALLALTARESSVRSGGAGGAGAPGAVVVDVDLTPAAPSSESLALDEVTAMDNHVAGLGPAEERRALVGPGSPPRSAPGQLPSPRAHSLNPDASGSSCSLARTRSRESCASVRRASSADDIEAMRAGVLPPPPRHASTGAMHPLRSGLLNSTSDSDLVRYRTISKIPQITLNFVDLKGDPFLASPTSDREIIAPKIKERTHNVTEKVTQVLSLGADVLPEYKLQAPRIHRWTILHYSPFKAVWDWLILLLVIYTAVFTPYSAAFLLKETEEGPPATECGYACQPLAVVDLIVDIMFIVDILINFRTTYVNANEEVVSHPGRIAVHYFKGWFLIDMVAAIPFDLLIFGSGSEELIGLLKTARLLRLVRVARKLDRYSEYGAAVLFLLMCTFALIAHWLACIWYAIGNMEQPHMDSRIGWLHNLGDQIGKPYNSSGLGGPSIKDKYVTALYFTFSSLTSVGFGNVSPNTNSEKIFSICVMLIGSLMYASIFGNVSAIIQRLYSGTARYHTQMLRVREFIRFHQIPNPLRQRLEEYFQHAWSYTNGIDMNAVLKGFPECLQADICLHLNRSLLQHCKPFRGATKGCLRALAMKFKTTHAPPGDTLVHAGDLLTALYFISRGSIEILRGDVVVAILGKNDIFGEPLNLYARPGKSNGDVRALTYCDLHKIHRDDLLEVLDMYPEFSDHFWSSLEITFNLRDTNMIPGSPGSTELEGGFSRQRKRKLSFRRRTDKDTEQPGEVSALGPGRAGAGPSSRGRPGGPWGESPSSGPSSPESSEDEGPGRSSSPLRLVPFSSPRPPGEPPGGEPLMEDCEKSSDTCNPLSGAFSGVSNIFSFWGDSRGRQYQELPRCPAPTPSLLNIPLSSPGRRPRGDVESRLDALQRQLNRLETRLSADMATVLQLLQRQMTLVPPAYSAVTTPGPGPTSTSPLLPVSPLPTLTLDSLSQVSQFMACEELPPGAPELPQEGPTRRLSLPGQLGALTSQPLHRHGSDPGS

Row | SMILES | hERG current change (%, negative = inhibition) at 1uM
1 | COC(=O)c1ccc(C)c(NC(=S)NCc2ccc(Cl)cc2)c1 | 8.06%
2 | CNc1ccc(C2(O)C(=O)c3ccccc3C2=O)cc1 | 0.586%
3 | CC1(C)CC(=O)C(C(O)c2ccccc2)C(C)(C)N1 (stereo not drawn) | 11.7%
4 | COc1ccccc1[C@@H]1C(c2cccc(Cl)c2)=NN(c2ccccc2)[C@H]1C(=O)N1CCOC1=O | 12.3%
5 | Cc1nn2c(C(F)(F)F)cc(-c3ccc(Cl)cc3)nc2c1C(=O)N1CCOCC1 | -0.53%
6 | COc1ccc(-c2[nH]ncc2CNC(C)CCn2cccn2)cc1F (stereo not drawn) | 10.2%
7 | COc1cccc(CNC(=O)CN(C)S(=O)(=O)c2ccc3c(c2)n(C)c(=O)c(=O)n3C)c1 | 15.2%
8 | NC(=O)CSc1nc2ccccc2c(=O)n1-c1ccccc1 | 16.8%
9 | c1ccc(Cn2c(NCc3ccco3)nc3ccccc32)cc1 | -9.99%
10 | COCCn1nnnc1CN(Cc1cc2cc(OC)c(OC)cc2[nH]c1=O)C1CCCC1 | 5.95%
11 | COc1ccc(NC(=O)CN(C)S(=O)(=O)c2cccc3cccnc23)cc1 | 3.62%
12 | CN(CC(=O)Nc1cccc(F)c1)C(=O)CN1C(=O)C2CCCCC2C1=O (stereo not drawn) | 12.5%
13 | CC(C)c1ccc2c(c1)C1Cc3ccccc3C1N2.O=C(O)C(F)(F)F (stereo not drawn) | 6.21%
14 | Cc1ccc(CNC(=O)Nc2ccc(F)cc2)n1C | 10.6%
15 | O=C(CSc1ccc(S(=O)(=O)N2CCCCC2)cn1)Nc1ccccc1Br | -0.585%
16 | Cc1ccc(S(=O)(=O)NC2CC3CCC2C3)cc1 (stereo not drawn) | 8.24%
17 | Cc1ccnc(SCCn2c(N3CCOCC3)nc3c2c(=O)[nH]c(=O)n3C)n1 | -11%
18 | CCC(Sc1nccn1C)C(=O)Nc1cccc2ccccc12 (stereo not drawn) | 9.89%
19 | CNC(=O)c1nc(C)n(-c2cc(Cl)cc(Cl)c2)n1 | 7.97%
20 | O=C1CN(S(=O)(=O)c2ccc(Cl)cc2C(F)(F)F)CCN1 | -1.87%
21 | Cn1nnc(NC(=O)CSc2ccc(Cl)cc2)n1 | 13%
22 | COc1ccc(C(=O)NCc2cccnc2)cc1Br | 15.9%
23 | CC(C)C(NC(=O)C(NC(=O)C1O[C@@H]2OC(C)(C)O[C@@H]2[C@H]2OC(C)(C)O[C@@H]12)C(C)C)C(=O)O (stereo partly drawn) | 10.8%

Row | SMILES | hERG current change (%, negative = inhibition) at 1uM
24 | O=C(NC1CCSc2ccccc21)c1cc(S(=O)(=O)N2CCOCC2)ccc1Cl (stereo not drawn) | 5.63%
25 | Cc1c(/C=N/O)sc2ccccc12 | 7.77%
26 | COc1ccc(NC(=S)N2N=CCC2c2ccccc2)cc1 (stereo not drawn) | 16.1%
27 | O=C(Cn1nc(C(=O)O)c2ccccc2c1=O)Nc1cc(Cl)ccc1-n1cncn1 | 11.3%
28 | Cc1cc(C)cc(OCc2ccc(C(=O)NN)o2)c1 | 16.5%
29 | FC(F)(F)c1ccncc1-c1nnc(C2CCCCC2)o1 | 15.5%
30 | CCCN1CCN(CC(=O)Nc2nnc(CC)s2)CC1 | 16.5%
31 | O=C(COC(=O)/C=C/C(=O)N1CCN(c2ccccc2)CC1)NC(c1ccccc1)c1ccccc1 | 10.3%
32 | COC(=O)C1=C(C(=O)OC)[C@@H]2N(C)c3ccc(OC)cc3[C@@]23C[C@@H](C(=O)OC)N(C(=O)c2ccc(Br)cc2)C3=N1 | 4.45%
33 | CC(C)(C)c1cc(C(=O)NNC(=O)Nc2cccc(Cl)c2)n(Cc2ccccc2)n1 | 12.4%
34 | CCCCCCOc1ccc(CN2CCN(C)CC2)cc1 | -0.56%
35 | CC(C)CN(C(=O)CSc1ccc2c(c1)OCCO2)c1c(N)n(CC(C)C)c(=O)[nH]c1=O | 7.87%
36 | S=C1NCCN1 | 16.3%
37 | COc1ccc(-c2nnc(SCC(=O)N3CCCC(C)C3)o2)c(OC)c1 (stereo not drawn) | 8.13%
38 | Cn1cnc(S(=O)(=O)NCc2cccs2)c1 | 16.6%
39 | C/C(=N\Nc1nc(C)cc(=O)[nH]1)C1CC1 | -5%
40 | Cc1occc1C(=O)N/N=C/C=C/c1ccccc1 | -0.998%
41 | CCC(CC)c1nnc(NC(=O)C2=COCCO2)s1 | 8.82%
42 | CCc1cccc(CC)c1NC(=S)NC(C)c1ccccc1 (stereo not drawn) | -7.57%
43 | COc1ccc(CN(C)C(=O)c2ccc(NC(=O)CC3SC(N4CCCC4)=NC3=O)cc2)c(OC)c1 (stereo not drawn) | 11.2%
44 | O=C(Nc1ccc(OC(=O)N2CCCC2)cc1)N1CCOCC1 | 3.18%
45 | CCCOc1ccc(CNCCCOCC)cc1OC.O=C(O)C(=O)O | 1.93%
46 | COc1ccc(-c2nn(-c3ccccc3)cc2/C=N/Nc2ccc(S(N)(=O)=O)cc2[N+](=O)[O-])cc1OC | 15%

Row | SMILES | hERG current change (%, negative = inhibition) at 1uM
47 | COc1cc(OC)c(OC)cc1/C=C(\C#N)C(=O)NCc1cccs1 | 17.2%
48 | CCCCCn1c(=O)c2ccccc2n2c(=S)[nH]nc12 | 5.25%
49 | CC/C(=N\NC(=O)c1ccccc1O)c1c(O)n(C2CCCCC2)c(=O)[nH]c1=O | 19%
50 | C=CCn1c(COc2ccccc2)nnc1SCC(=O)O | 0.176%
51 | CC(=O)Nc1ccc(NC(=O)c2ccc([N+](=O)[O-])cc2Cl)cc1 | 6.14%
52 | Cc1cc(=O)oc(C)c1C(=O)Nc1cccc2ccccc12 | 11%
53 | CCOC(=O)C(C)n1nc(/C=C/c2ccc(OC)cc2)ccc1=O (stereo not drawn) | 2.35%
54 | CN(C)c1ccc(/C=N\NC(=O)c2cccc3cc[nH]c23)cc1 | 8.16%
55 | C/C(=C\C(=O)c1ccc(C)o1)Nc1ccc(C(=O)O)cc1C | 3.78%
56 | CCn1c(SCC(=O)C(C)(C)C)nnc1-c1ccccc1OC | 11%
57 | CS(=O)(=O)N(CC(=O)Nc1cccc(Cl)c1Cl)c1ccccc1 | 17.2%
58 | CN(C)CCC(O)c1ccccc1 (stereo not drawn) | 8.63%
59 | Cc1cccc2sc(NNC(=O)c3ccc4c(c3)OCCO4)nc12 | -4.43%
60 | CS(=O)(=O)O.NC1C2CN(c3nc4c(cc3F)c(=O)c(C(=O)O)cn4-c3ccc(F)cc3F)CC12 (stereo not drawn) | 7.19%
61 | O=C1CN(CC(=O)N2CCCCC2)c2ccccc2O1 | 12.6%
62 | C/C=C/C(=O)N1CC2(CC(c3cccc(NC(=O)/C(C)=C/C)c3)=NO2)C[C@H]1C(N)=O (stereo partly drawn) | 3.54%
63 | c1ccc(CCNc2c3c(nc4ncnn24)CCC3)cc1 | -3.14%
64 | CCn1cc(C(=O)NCCCOC(C)C)c2cc(OC)c(OC)cc2c1=O | 7.12%
65 | O=C(c1ccc(COc2ccccc2Cl)o1)N1CCN(Cc2ccc3c(c2)OCO3)CC1 | 6.53%
66 | O=C(CN1C(=O)NC2(CCCC2)C1=O)Nc1nc2ccccc2s1 | 6.67%
67 | Cc1nc(C)c(C(=O)N/N=C/c2c[nH]c3ccccc23)s1 | 21.3%
68 | O=C(CCS(=O)(=O)Cc1ccccc1)Nc1nncs1 | 22.7%
69 | Cc1ccc([C@@H]2[C@@H]3C(=O)N(C)C(=O)[C@@H]3[C@]3(Cc4ccccc4)C(=O)N(Cc4ccccc4)CC(=O)N23)o1 | 7.29%

Row | SMILES | hERG current change (%, negative = inhibition) at 1uM
70 | Cc1cccc(OCc2nnc(NC(=O)c3cccs3)s2)c1 | 1.72%
71 | CC(=O)N/C(=C\c1ccccc1)C(=O)OCc1ccc(F)cc1 | 27.3%
72 | Cc1cccc(N(CC(=O)NCCSCc2ccco2)S(=O)(=O)c2ccccc2)c1 | 11.4%
73 | COC(=O)c1c(C)[nH]c(C)c1-c1cccc([N+](=O)[O-])c1 | 1.07%
74 | Cc1ccc2c(CN(C)Cc3ccc(Cl)cc3Cl)cc(=O)oc2c1 | 7.43%
75 | O=C(Nc1nnc(-c2cccs2)o1)c1ccco1 | -0.481%
76 | COc1cc([N+](=O)[O-])cc2sc(NC(C)=O)nc12 | 4.35%
77 | C/C(CC(=O)NCc1ccco1)=N\NC(=O)c1ccc([N+](=O)[O-])cc1Cl | 9.29%
78 | CC(NC(=O)c1cc(=O)[nH]c2ccc(Br)cc12)c1ccccc1 (stereo not drawn) | 14.7%
79 | Cc1cc(C)n(C(=O)CCCCCCCCC(=O)n2nc(C)cc2C)n1 | 4.55%
80 | COc1ccc(CNC(=O)c2cc(-c3cc(C)ccc3O)n[nH]2)cc1 | 8.57%
81 | COc1ccc(CCNC(=O)C2CC3Cn4c(nc5ccccc54)C3N2c2ccccc2)cc1 (stereo not drawn) | 11.5%
82 | Cl.N=c1sccn1CC(=O)Nc1ccc([N+](=O)[O-])cc1Cl | 1.32%
83 | Cc1ccc(S(=O)(=O)N2CCOCC2)cc1NC(=O)c1cc(-c2ccccn2)nc2ccccc12 | 8.07%
84 | Cc1cccc(-c2cc3nc4c(c(N5CCOCC5)n3n2)CCCC4)c1 | 7.15%
85 | CCC(CC)C(=O)Nc1cc(NC(=O)C(CC)CC)cc(C(=O)O)c1 | 16.9%
86 | O=C(Nc1cccc(Cl)c1)Nn1cnnc1 | 10.5%
87 | CCOC(=O)C(C)Oc1c(C(=O)OC)sc2ncccc12 (stereo not drawn) | 9.1%
88 | O=C1C=C(Nc2ccc(Cl)cc2)CC(c2ccccc2)C1 (stereo not drawn) | -2.37%
89 | Cc1cc(C)c(C(=O)CSc2n[nH]c(=O)n2C2CC2)cc1C | 5.14%
90 | CC(=O)c1cccc(S(=O)(=O)NC2CCCCCC2)c1 | 2.99%
